This is an account of results in PubChem BioAssay AID488969 (Vanderbilt High Throughput Screening Facility, 2010).

Whole data set: some 110,000 compounds, median “z-score” near -0.1, cut for the highest 2% near 2. The list shows a part of the results. Active and inactive are the calls of the source.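 The calls were made as follows: active = z-score in the third read window above 3 or below -3; inactive = the rest.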

The assay deals with Metabotropic glutamate receptor 8 (Rattus norvegicus) (UniProt P70579). Put plainly: rat mGluR8 modulators via GIRK flux, primary screen, cell-based, thallium flux, HTS (AID 488969). As to conditions: HEK293 rat mGluR8, GIRK (G protein-gated inwardly rectifying potassium channel) thallium flux, FluoZin2; at 10 µM; stronger effect = higher value; submaximal glutamate (EC20) added with thallium.
Sequence of UniProt P70579 (P70579 whole entry, looked up): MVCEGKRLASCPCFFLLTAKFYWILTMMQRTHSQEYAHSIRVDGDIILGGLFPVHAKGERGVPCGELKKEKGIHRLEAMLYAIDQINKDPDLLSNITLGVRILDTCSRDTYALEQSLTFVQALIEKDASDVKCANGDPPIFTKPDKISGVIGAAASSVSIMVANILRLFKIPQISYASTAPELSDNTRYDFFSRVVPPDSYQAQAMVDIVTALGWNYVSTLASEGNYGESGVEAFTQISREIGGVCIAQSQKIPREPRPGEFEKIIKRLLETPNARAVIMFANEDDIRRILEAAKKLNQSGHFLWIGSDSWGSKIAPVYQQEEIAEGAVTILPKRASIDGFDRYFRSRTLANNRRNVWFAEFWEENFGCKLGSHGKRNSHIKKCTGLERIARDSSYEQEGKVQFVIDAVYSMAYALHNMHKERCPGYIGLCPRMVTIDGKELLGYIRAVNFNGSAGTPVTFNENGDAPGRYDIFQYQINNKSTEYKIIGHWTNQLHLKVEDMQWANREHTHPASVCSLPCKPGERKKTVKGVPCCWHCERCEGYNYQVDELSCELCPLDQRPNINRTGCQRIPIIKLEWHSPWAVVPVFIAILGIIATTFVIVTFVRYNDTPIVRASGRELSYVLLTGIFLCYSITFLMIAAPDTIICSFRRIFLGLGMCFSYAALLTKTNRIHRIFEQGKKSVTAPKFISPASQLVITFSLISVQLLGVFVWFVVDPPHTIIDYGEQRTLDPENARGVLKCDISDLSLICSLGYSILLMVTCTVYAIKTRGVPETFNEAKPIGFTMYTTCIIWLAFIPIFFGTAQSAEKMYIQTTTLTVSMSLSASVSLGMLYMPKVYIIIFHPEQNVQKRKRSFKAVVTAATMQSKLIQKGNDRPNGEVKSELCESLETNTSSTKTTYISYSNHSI
In the case of `C#CCOc1ccc(Br)cc1/C=N/O`, the z-score is -0.165. Under `COc1ccc(-c2cc(=O)[nH][nH]2)cc1` stands 0.0391; under `O=C1c2ccccc2-c2ccc(C(=O)N3CCOCC3)cc21`, -0.391. Next, `COc1ccc(Cc2nc(C(=O)NCc3ccccc3OC)cs2)cc1`: -0.237; `COc1ccc(F)cc1CN1CCN(C(=O)CCC(=O)Nc2nnc(C(C)C)s2)CC1`: -0.059. Under `CC(OC(=O)CN1C(=O)C2CCCCC2C1=O)C(=O)Nc1ncc(Cl)cc1Cl` (stereo not drawn) stands 0.031. The compound `O=C(COC(=O)CNC(=O)c1sc2ccccc2c1Cl)Nc1c(Cl)cc(Cl)cc1Cl` displayed a z-score of 0.172. Next, `COc1ccc(Cl)cc1NC(=O)C1CCCN(S(=O)(=O)c2cccc3nonc23)C1` (stereo not drawn): 0.0493; `COc1ccc(-c2cc(-c3ccccc3O)[nH]n2)cc1`: -0.217; `O=C(/C=C/c1ccccc1)Nn1cnnc1`: -0.201. Under `C=CCOC(=O)C1CC=CCC1C(=O)Oc1ccc(F)cc1F` (stereo not drawn) stands -0.407; under `COc1ccc(C(=O)Nc2scc(-c3ccc(Cl)cc3Cl)c2C(N)=O)cc1`, -0.0402. `CCOc1ccc(NC(=O)COc2ccc(C(=O)NC3CCCc4ccccc43)cc2OC)cc1` (stereo not drawn) registered a z-score of -0.402. Under `Cc1cc(NCc2ccccn2)nc2ccccc12` stands -0.385; under `Cc1ccc(CN2CC(C(=O)Nc3cc(S(C)(=O)=O)ccc3Cl)CC2=O)cc1` (stereo not drawn), -0.258; under `COc1ccc(Nc2sc(C(=O)Nc3cccc(Cl)c3)c(N)c2C(=O)Nc2ccccc2OC)cc1`, 0.0963. Under `COc1ccc(NC(=O)CN2CCCC(C)C2)c([N+](=O)[O-])c1` (stereo not drawn) stands -0.424.

In the case of `NS(=O)(=O)c1ccc(Nc2nc(-c3ccc4ccccc4c3)cs2)cc1`, the z-score was found to be 0.483. In turn, `CC12CC(NC(=O)N1CCc1ccccc1)c1cc(Cl)ccc1O2` (stereo not drawn) returned a z-score of 0.322.

As to `Cc1nc2ccc(S(=O)(=O)NC(C(=O)N3CCCCCC3)C(C)C)cc2s1` (stereo not drawn), the z-score is -0.161.

`N/C(=N\OS(=O)(=O)c1ccc(Br)cc1)c1ccncc1` showed a z-score of -0.306. Under `OCCCCNCc1ccc(OCc2ccccc2Cl)cc1` stands 2.17.

Turning to `CCOC(=O)C1=C(C)N(C)C(=S)NC1c1ccc(Cl)cc1Cl` (stereo not drawn), the z-score was -0.073. Next, `Cn1cc(C(=O)C(F)(F)F)c2ccccc21`: -0.565; `COc1ccc(/C=N/NS(C)(=O)=O)c(OC)c1`: -0.0153. Under `CCN1CN(Cc2ccccc2)CNC1=S` stands -0.0751; under `Cc1ccc(CSc2nc3c(cc2C#N)CCC3)cc1`, -0.139; under `O=C(Nc1ccc(N=Nc2ccccc2)cc1)c1ccccc1Cl`, 0.995. Compound `N/C(=N\NC(=O)c1cccs1)c1cc2ccccc2oc1=O` showed a z-score of -0.117. Next, `Cc1ccc(S(=O)(=O)c2nc(S(C)(=O)=O)sc2NCc2ccc3c(c2)OCO3)cc1`: -0.437; `COc1ccccc1CNC(=O)C1COc2ccccc2O1` (stereo not drawn): 0.216; `Cc1nn(CCOc2ccccc2)c(=O)n1-c1ccccc1`: 0.421. Under `O=C(c1ccccc1)N1N=C(c2ccccc2)CC1c1ccc2nccnc2c1` (stereo not drawn) stands -0.422; under `COc1ccc(-c2nnc(SCCC(=O)O)n2C)cc1OC`, 0.0273; under `NC(=O)c1ccc(N2CCCCC2)c(N2C(=O)CCC2=O)c1`, -1.02. Consider `COc1ccccc1C(=O)Nc1ccc(S(=O)(=O)N2CCOCC2)cc1`, for which the z-score was -0.0855. As for `CCOc1ccc(Br)cc1/C(C)=N\NC1=NCCN1`, the z-score is active: 3.75. Under `CCCNC(=O)Cn1cnc2sc(C(=O)N3CCCC(C(=O)OCC)C3)c(C)c2c1=O` (stereo not drawn) stands -1.05.

`CC(=O)c1cccc(NC(=O)c2ccc(N(Cc3ccccc3)S(C)(=O)=O)cc2)c1` showed a z-score of -0.207. Under `Cc1ccc(C)c(S(=O)(=O)N2CCN(CC(=O)Nc3sccc3C#N)CC2)c1` stands -0.11; under `COc1ccc(C(CC(=O)c2ccccc2)C2CCCCC2=O)cc1` (stereo not drawn), 0.759; under `O=C(Nc1ccc(OCc2ccccc2)cc1)c1cccnc1`, 0.141. Next, `COc1ccc(N(C(=O)c2ccc(C)cc2)S(=O)(=O)c2cccs2)cc1`: -0.0765. Next, `COc1ccc2c3c(c(=O)oc2c1OCC(=O)C(C)(C)C)CCCC3`: -0.189. `CCCOc1ccc(C2NC(=S)NC(c3ccccc3)=C2C(=O)Nc2ccc(C)cc2)cc1OC` (stereo not drawn) registered a z-score of -0.936. Turning to `Cc1ccc(C(=O)N(c2ccccn2)C(C)c2ccco2)cc1C` (stereo not drawn), the z-score was -0.0819. Under `CCOC(=O)c1c(-c2ccc(OCC)cc2)csc1NC(=O)CCN1C(=O)c2ccccc2C1=O` stands -0.435; under `COc1ccc(/C=N/NC(=O)CNC(=O)COc2ccccc2)cc1`, 0.338. Next, `Nc1nnc(SCc2cc3c(cc2Cl)OCO3)s1`: 0.235; `COc1cc(/C=C/C(=O)O)cc(S(=O)(=O)NCCO)c1OC`: -0.386; `O=C(CSc1nnc2ccccn12)NC(=O)NC1CCCC1`: -0.0985. As to `Cc1nn(C)c(Oc2cccc(Cl)c2)c1C=O`, the z-score was -0.19. In the case of `C=CC[n+]1c(-c2ccc(OCC)cc2)csc1NNC(=O)Nc1ccccc1`, the z-score came out at 0.554. Turning to `O=C(CNC(=O)OCc1ccccc1)Oc1cc2oc(=O)cc(-c3ccccc3)c2cc1Cl`, the z-score was -0.11. Next, `COc1cccc(-n2nnnc2SCC(=O)NCc2ccco2)c1`: -0.324; `Cc1cccc(NC(=O)CNc2cc(C)ccc2C)c1`: 0.589; `CCOc1ccc(S(=O)(=O)N(C)c2ccc(OCC(=O)NCc3ccco3)cc2)cc1`: -0.248.

On to `CC12COC3(C(=O)Nc4cccnc4)CC1CCC32C` (stereo not drawn), for which the z-score was -0.361. Regarding `COc1ccc(OCCN(C)Cc2ccccc2)cc1`, the z-score turned out to be 0.191. Next, `Cc1cc(C(=O)NCCC2=CCCCC2)c(C)o1`: -0.273; `Cc1ccc(CNC(=O)C(CCC(N)=O)NC(=O)OCc2ccccc2)cc1` (stereo not drawn): -0.289. With `CC1CCCN(C/C=C/c2ccccc2[N+](=O)[O-])C1` (stereo not drawn), the z-score turned out to be 0.347. Under `Cc1ccc([N+](=O)[O-])cc1NC1OC(CO)C(O)C1O` (stereo not drawn) stands -0.337. Under `Cc1cc(-c2ccccc2)nc(N2CCC(C(=O)NCC3CCCCC3)CC2)n1` stands 0.452; under `O=C(Nc1cccc(Cl)c1)Nc1nnc(CC2=CCCCC2)s1`, 0.419. Next, `Cc1ccc(-n2c(SCC(=O)N3c4ccccc4Sc4ccccc43)nnc2-c2ccncc2)cc1`: -0.152; `O=C(Nc1nc(=S)ss1)c1c(F)cccc1F`: -0.588. `Cc1c(C(=O)N2CCOCC2)sc(NC(=O)c2ccc3c(c2)OCO3)c1C#N`: the z-score is -0.0461.

Compound `N#CCSCC(=O)Nc1ccc(F)cc1` registered a z-score of 0.078. Under `CN(C)c1ccc(/C=N/NC(=O)CCC(=O)NCc2ccccc2)cc1` stands -0.256; under `N=c1c(-c2nc3ccccc3[nH]2)cc(C(=O)c2cccs2)nn1-c1ccc(Cl)cc1`, -0.263; under `CC(C)Cc1cc(C(=O)N2N=C(C(F)F)CC2(O)C(F)F)c2ccccc2n1` (stereo not drawn), -0.451. As to `O=C(COc1ccc(Br)cc1)Nc1ccncc1`, the z-score came out at 0.0078. Compound `Cc1noc(C)c1CSc1nc2ccccc2nc1NS(=O)(=O)c1ccc(Cl)cc1` showed a z-score of -2.14. The compound `CC(/C=N/NC(=O)c1nn(C)c(C)c1Br)=C\c1ccccc1` displayed a z-score of -0.0235. Under `CCCCOCCCNC(=O)CCCOc1ccccc1` stands -0.0568; under `CCCCn1c(/N=C/c2c[nH]c3ccccc23)nc2ccccc21`, -0.327; under `Cc1ccc2c(Cn3cc(C(F)(F)F)cc(Cl)c3=O)cc(=O)oc2c1`, -0.249. Under `CC(NC(=O)Cn1nc(-c2ccccc2)c2ccccc2c1=O)c1ccccc1` (stereo not drawn) stands -0.117.

`CCOC(=O)Nc1cccc(Cl)c1C`: the z-score is -0.345.

On to `COc1cc(/C=C2\N=C(c3ccccc3)OC2=O)ccc1OCc1c(C)no[n+]1[O-]`, for which the z-score was -0.277.

The compound `COc1ccc(N2CCN(C(=O)CNC(=O)c3ccc(C(C)(C)C)cc3)CC2)cc1` registered a z-score of 0.378. Next, `CC1CCC/C(=N\NC(=O)COc2ccccc2Cl)C1` (stereo not drawn): 0.319.

`COc1ccc2sc3ccccc3c(=O)c2c1OC` showed a z-score of 0.156. Under `CC1=CC2=NC(=O)CC(C)(C(=O)N(CC(=O)NC(C)(C)C)Cc3cccs3)N2C=C1` (stereo not drawn) stands -0.0195.

In the case of `CCN(CC)c1ccc(NC(=O)CN2CCN(c3ccc(F)cc3)CC2)cc1`, the z-score is -0.0649. Next, `CC1CCCC(NC(=O)CCCn2c(=O)[nH]c3cc(Cl)ccc3c2=O)C1C` (stereo not drawn): 0.035; `COc1ccc(C(=O)Nc2sc3c(c2C(=O)O)CC(C)(C)OC3)cc1`: -0.257. Next, `CCN(CC)CCOC(=O)c1c(C)n(C)c2ccc(OC)cc12`: -0.079; `Cc1ccc(Nc2nnc(SCC(=O)Nc3cccc(S(=O)(=O)N4CCCCC4)c3)s2)cc1`: -0.23; `Cc1ccc(Cn2ccc(=O)c(OCc3ccccc3)c2C)cc1`: -0.0263. Under `CCn1nnnc1SCC(=O)Nc1ccc(OCc2ccccc2)cc1` stands 0.107.

For `FC(F)(F)c1cccc(N2CCN(CC3CC4C=CC3C4)CC2)c1` (stereo not drawn), the z-score was 0.232. Under `CCOC(=O)N1CCC(NC(=O)C2CCCCN2S(=O)(=O)c2ccc(F)cc2)CC1` (stereo not drawn) stands -0.566. Under `COC(=O)C(CC(=O)Nc1cc(C)ccc1C)Nc1ccccc1OC` (stereo not drawn) stands -0.367.

`COc1ccc(NC(=O)c2ccc(OC(=S)N(C)c3ccc(OC)cc3)cc2)cc1` came in with a z-score of -0.0222.

`CC(=O)c1sc2ccccc2c1OC(=O)c1ccco1` came in with a z-score of -1.18.

Regarding `Nc1nncn1C(=O)c1cccs1`, the z-score was 1.33. `O=c1c2c(-c3ccccc3)csc2nc2n1CCC2`: the z-score was -0.283. Next, `O=C(CCl)N(c1ccccc1)C1CCS(=O)(=O)C1` (stereo not drawn): -0.0909; `O=C(Nc1ccc(Sc2ccc(Br)cc2)cc1)c1ccco1`: -0.197. `CCCc1nnc(NC(=O)C(CC)OC(=O)c2cc(C)nc3ccccc23)s1` (stereo not drawn) returned a z-score of -0.638. Next, `O=C(CCCC(=O)OCC(F)(F)C(F)F)Nc1nccs1`: 0.162; `CCCN(CCC)CCNC(=O)c1cc2c(C)nc3ccccc3c2o1`: -0.396. Next, `CCCCOc1ccc(S(=O)(=O)NNC(=O)C2Cc3c(ccc4ccccc34)O2)cc1` (stereo not drawn): 1.01; `COc1ccc(NC(=O)c2ccc(CN(c3cc(Cl)ccc3C)S(=O)(=O)c3ccccc3)cc2)cc1OC`: -0.186. Under `CC1CCc2nc(NC(=O)CN3CCN(c4ccc(F)cc4)CC3)sc2C1` (stereo not drawn) stands 0.333; under `Cc1cc(C(=O)COC(=O)c2ccc[nH]c2=O)c(C)n1-c1ccccc1`, -0.249; under `Cc1ccccc1OCCNC(=O)/C=C/c1ccccc1`, 0.124. As for `CCN(CC)C(=O)CSc1nc2sc3c(c2c(=O)n1-c1ccc(C)cc1)CC(C)(C)SC3`, the z-score was -1.68.

As for `COc1ccc(NC(=O)NCc2ccccn2)cc1OC`, the z-score stood at 0.148. Regarding `O=C1CCC2(C(=O)O)Sc3ccccc3N12` (stereo not drawn), the z-score was -0.169.

The compound `COc1ccc(C(=O)NC(=S)Nc2ccccc2N2CCOCC2)cc1[N+](=O)[O-]` showed a z-score of -0.229.
